Among the data in article PMC8382200 are binding values, retold here.

Protein sequences, listed by entry. Tags and fused reporters are not part of them.
UniProt P35240: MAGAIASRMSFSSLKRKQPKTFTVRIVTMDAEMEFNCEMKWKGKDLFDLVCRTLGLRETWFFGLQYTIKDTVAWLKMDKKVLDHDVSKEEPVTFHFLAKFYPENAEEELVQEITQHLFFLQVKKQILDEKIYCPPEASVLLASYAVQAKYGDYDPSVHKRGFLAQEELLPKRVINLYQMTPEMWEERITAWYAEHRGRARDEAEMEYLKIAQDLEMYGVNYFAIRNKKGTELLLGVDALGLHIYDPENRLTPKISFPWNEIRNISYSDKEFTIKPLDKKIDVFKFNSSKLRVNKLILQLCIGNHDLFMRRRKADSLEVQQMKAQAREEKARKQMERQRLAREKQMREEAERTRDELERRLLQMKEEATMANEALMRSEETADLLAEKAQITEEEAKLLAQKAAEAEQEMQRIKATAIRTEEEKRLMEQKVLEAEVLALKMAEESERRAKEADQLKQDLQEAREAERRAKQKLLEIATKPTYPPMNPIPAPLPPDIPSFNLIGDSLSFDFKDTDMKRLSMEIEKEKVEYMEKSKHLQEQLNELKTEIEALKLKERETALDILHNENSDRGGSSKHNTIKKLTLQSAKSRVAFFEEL
UniProt P15311: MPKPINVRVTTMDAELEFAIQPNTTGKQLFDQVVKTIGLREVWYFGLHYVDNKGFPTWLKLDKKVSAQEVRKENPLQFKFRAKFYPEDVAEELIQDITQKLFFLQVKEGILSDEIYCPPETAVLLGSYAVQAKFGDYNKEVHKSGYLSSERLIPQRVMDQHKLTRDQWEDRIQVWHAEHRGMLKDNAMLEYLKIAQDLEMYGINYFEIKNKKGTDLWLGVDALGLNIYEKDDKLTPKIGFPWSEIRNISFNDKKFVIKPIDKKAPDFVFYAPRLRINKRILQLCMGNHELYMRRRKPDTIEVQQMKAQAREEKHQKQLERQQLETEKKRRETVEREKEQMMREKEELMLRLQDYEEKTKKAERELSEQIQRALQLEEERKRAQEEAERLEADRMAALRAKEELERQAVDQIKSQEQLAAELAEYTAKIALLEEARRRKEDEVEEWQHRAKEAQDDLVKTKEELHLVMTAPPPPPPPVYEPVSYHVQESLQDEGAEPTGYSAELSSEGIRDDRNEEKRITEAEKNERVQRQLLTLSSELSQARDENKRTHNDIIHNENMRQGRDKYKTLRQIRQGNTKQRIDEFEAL
UniProt P35241: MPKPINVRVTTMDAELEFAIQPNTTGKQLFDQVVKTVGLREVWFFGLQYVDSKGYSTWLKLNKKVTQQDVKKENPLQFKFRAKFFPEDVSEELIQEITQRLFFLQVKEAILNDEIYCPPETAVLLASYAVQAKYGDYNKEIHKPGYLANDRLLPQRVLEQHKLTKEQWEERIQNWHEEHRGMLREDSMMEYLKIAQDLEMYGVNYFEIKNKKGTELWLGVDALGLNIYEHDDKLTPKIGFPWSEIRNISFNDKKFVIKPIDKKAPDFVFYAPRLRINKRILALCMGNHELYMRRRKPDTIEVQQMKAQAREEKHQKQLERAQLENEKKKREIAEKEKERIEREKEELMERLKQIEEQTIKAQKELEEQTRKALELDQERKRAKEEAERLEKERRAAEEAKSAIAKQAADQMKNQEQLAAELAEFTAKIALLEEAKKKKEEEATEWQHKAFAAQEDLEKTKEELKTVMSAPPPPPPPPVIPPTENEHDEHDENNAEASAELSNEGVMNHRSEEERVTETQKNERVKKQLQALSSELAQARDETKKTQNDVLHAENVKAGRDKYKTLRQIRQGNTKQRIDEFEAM
UniProt P26038: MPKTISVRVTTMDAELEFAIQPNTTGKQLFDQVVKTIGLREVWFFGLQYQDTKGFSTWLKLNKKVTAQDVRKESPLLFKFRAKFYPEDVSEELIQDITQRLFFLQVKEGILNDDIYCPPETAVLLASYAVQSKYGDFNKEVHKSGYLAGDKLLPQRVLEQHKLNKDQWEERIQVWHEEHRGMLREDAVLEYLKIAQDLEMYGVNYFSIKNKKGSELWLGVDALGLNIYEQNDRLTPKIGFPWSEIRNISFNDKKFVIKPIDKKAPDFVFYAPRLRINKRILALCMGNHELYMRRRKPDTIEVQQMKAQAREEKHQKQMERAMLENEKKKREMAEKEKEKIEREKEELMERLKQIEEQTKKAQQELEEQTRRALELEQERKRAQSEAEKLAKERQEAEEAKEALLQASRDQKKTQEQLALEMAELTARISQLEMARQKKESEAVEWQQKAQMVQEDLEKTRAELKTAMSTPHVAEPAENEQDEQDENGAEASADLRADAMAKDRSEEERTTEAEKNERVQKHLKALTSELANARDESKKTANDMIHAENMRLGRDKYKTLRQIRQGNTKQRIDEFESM
UniProt P11171: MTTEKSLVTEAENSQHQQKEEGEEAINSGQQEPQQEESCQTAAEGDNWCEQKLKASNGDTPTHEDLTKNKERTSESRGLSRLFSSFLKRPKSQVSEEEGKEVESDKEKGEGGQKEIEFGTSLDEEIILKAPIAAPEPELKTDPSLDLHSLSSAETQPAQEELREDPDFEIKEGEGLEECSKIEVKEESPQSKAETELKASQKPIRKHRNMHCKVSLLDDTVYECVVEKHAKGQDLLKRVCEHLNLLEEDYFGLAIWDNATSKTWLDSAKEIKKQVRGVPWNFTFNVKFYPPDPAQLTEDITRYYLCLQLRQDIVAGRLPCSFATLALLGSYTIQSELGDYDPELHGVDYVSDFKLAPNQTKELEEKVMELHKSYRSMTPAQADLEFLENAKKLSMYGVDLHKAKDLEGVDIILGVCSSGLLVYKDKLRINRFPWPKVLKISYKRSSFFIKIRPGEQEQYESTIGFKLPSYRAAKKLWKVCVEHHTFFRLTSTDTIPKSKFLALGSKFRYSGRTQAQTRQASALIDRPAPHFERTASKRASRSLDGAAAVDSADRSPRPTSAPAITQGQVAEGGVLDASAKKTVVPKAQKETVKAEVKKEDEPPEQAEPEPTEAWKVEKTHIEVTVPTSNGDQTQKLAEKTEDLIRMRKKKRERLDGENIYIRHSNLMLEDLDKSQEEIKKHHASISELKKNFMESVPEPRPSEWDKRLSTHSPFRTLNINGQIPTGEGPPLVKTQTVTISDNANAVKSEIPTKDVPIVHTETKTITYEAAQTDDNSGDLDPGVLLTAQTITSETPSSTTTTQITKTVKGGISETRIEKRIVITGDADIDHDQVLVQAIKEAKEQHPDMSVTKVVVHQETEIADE

Targets include Flag-Merlin isoform 1 (UniProt P35240); Flag-Ezrin (UniProt P15311); Flag-Radixin (UniProt P35241); Flag-Moesin (UniProt P26038).
Test in all cases: co-IP; Flag-tagged proteins transfected in HEK293T; lysis in PBS-E LB (1% TX100); Flag (M2) agarose IP; endogenous proteins by Western blot; in some panels after siRNA knock-downs or in dense or sparse cells
Assay [1] concerns the target Flag-erythrocyte membrane protein band 4.1 (EPB41) (UniProt P11171).

Results are given in words; binding and its absence hold for the method and conditions named. Binding seen in cells or lysates may run through a third protein. Some results given as binding are weak or reduced against the parent protein; the word gives no strength.

B1: TAT-SF1 (protein, UniProt O43719 1-755)
chain: MSGTNLDGNDEFDEQLRMQELYGDGKDGDTQTDAGGEPDSLGQQPTDTPYEWDLDKKAWFPKITEDFIATYQANYGFSNDGASSSTANVEDVHARTAEEPPQEKAPEPTDARKKGEKRKAESGWFHVEEDRNTNVYVSGLPPDITVDEFIQLMSKFGIIMRDPQTEEFKVKLYKDNQGNLKGDGLCCYLKRESVELALKLLDEDEIRGYKLHVEVAKFQLKGEYDASKKKKKCKDYKKKLSMQQKQLDWRPERRAGPSRMRHERVVIIKNMFHPMDFEDDPLVLNEIREDLRVECSKFGQIRKLLLFDRHPDGVASVSFRDPEEADYCIQTLDGRWFGGRQITAQAWDGTTDYQVEETSREREERLRGWEAFLNAPEANRGLRRSDSVSASERAGPSRARHFSEHPSTSKMNAQETATGMAFEEPIDEKKFEKTEDGGEFEEGASENNAKESSPEKEAEEGCPEKESEEGCPKRGFEGSCSQKESEEGNPVRGSEEDSPKKESKKKTLKNDCEENGLAKESEDDLNKESEEEVGPTKESEEDDSEKESDEDCSEKQSEDGSEREFEENGLEKDLDEEGSEKELHENVLDKELEENDSENSEFEDDGSEKVLDEEGSEREFDEDSDEKEEEEDTYEKVFDDESDEKEDEEYADEKGLEAADKKAEEGDADEKLFEESDDKEDEDADGKEVEDADEKLFEDDDSNEKLFDEEEDSSEKLFDDSDERGTLGGFGSVEEGPLSTGSSFILSSDDDDDDI
As to B1, the binding entry is recorded as “binds” with Flag-Merlin isoform 1; “no binding” in the assay with Flag-Ezrin; “no binding” in assay [1]; “no binding” with Flag-Radixin; “no binding” with Flag-Moesin.
